# About 14,000 (4.5%) of roughly 310,000 compounds showed an effect of 50% or more. Effects have a minus sign here. The list shows a part of the results.
# Target: human ether-à-go-go-related gene (hERG) potassium channel (human, UniProt Q12809)
# Test: primary screen, population patch clamp on CHO cells stably expressing hERG
# 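Further: peak tail current of the secondary pulse compared with the same well before compound.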
# human ether-à-go-go-related gene (hERG) potassium channel, sequence (Q12809 whole entry, looked up): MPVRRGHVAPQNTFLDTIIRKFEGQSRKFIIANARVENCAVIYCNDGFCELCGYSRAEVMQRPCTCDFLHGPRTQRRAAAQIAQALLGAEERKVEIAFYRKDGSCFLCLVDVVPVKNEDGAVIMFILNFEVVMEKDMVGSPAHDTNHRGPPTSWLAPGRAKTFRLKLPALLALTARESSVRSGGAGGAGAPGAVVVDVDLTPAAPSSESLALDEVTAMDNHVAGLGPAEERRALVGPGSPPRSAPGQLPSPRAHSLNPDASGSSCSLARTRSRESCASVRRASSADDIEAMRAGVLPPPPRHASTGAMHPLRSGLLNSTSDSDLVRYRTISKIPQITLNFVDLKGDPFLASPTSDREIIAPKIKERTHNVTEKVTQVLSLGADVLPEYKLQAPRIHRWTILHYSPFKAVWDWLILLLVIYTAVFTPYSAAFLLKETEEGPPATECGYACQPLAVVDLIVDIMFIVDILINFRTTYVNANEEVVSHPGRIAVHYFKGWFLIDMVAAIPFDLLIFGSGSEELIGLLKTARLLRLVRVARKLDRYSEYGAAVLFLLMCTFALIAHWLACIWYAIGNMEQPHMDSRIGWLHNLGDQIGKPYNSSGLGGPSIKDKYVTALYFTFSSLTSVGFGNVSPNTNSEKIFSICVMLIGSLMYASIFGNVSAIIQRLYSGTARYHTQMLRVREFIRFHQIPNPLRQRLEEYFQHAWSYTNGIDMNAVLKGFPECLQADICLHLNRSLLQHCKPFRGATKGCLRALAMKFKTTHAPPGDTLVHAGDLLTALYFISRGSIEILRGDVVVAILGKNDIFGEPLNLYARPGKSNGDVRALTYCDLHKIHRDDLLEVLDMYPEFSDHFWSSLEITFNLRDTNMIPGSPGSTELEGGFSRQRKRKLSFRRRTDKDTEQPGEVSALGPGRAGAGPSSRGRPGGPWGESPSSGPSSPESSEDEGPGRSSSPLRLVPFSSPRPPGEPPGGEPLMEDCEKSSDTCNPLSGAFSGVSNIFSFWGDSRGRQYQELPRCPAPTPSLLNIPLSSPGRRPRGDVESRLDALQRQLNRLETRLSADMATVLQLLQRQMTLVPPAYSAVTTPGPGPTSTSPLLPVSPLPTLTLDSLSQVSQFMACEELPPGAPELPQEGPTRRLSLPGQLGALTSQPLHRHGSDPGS
row,SMILES,"hERG current change (%, negative = inhibition) at 10uM [%]"
1,O=C(Nc1ccc(S(=O)(=O)Nc2cnc3ccccc3n2)cc1)c1ccc(Br)o1,-11.8
2,C[C@H](NC(=O)[C@@H]1CCC(=O)N1Cc1ccco1)c1ccccc1,9.86
3,CCCC[C@@H]1C[C@H]1[C@@H](NC(=O)c1cccs1)c1ccc(C(F)(F)F)cc1,-1.01
4,O=C(NCc1ccco1)C12CN(Cc3ccccc3)CC1C(c1cccc([N+](=O)[O-])c1)=NO2 (stereo not drawn),-46.6
5,O=[N+]([O-])c1cccc(S(=O)(=O)NCCCN2CCOCC2)c1,-4.75
6,COc1ccc(CCN2C(=O)CSC2=Nc2ccc(C(C)C)cc2)cc1OC,10.2
7,CC(Nc1cc(N2CCN(C(=O)C(C)(C)C)CC2)ccc1[N+](=O)[O-])c1ccccc1 (stereo not drawn),-10.1
8,COCCCN1C(=O)c2ccc(C(=O)Nc3ccc(OC)cc3OC)cc2C1=O,-0.271
9,N#CCCCn1c(O)c(N=NC(=O)C(O)c2ccccc2)c2ccccc21 (stereo not drawn),-2.55
10,COc1ccc(C)cc1NC(=O)C(C)N1CCOCC1.Cl (stereo not drawn),9.06
11,CC(=O)Nc1nc(Cn2nnc(-c3ccc4c(c3)OCO4)n2)nc(N(C)C)n1,-32.8
12,Cc1ccc(NC(=S)NC(=O)Cc2ccccc2)c(O)c1,3.87
13,CCc1ccccc1N(CC(=O)O)S(C)(=O)=O,5.41
14,CCN1C(=O)[C@@H]2[C@@H](c3ccc(-c4ccc(OC)cc4)cc3)N3CCCC[C@@]3(C(=O)OC)[C@@H]2C1=O.O=C(O)C(F)(F)F,-2.42
15,CN(C(=O)COc1ccc2c(-c3ccccc3)cc(=O)oc2c1)C1CCS(=O)(=O)C1 (stereo not drawn),-17.1
16,O=C(CSc1nc(=O)n(CCCN2CCOCC2)c2c1CCCC2)Nc1cccc([N+](=O)[O-])c1,-67.7
17,CCCc1nnc(NC(=O)Cn2c(=O)oc3cc(Br)ccc32)s1,-1.07
18,O=C(Nc1nc2ccccc2s1)c1ccc(OCC2CCCO2)cc1 (stereo not drawn),-5.77
19,COc1ccc(-c2c([C@H]3[C@@H]4C=CCC[C@@]4(C)C(=O)N3Cc3ccccc3)ccc3ccccc23)cc1OC,10.8
20,CCC(C)[C@H](NC(=O)C1(c2ccccc2)CCN(C(=O)OC(C)(C)C)CC1)C(=O)N[C@@H](C(=O)O)c1ccccc1 (stereo partly drawn),8.38
21,O=C(CN1CCN(c2ccccc2O)CC1)Nc1ccc([N+](=O)[O-])cc1Br,-6.3
22,CC(C)(C)NC(=O)C(Cc1ccccc1)NS(=O)(=O)c1ccc2c(c1)CCC(=O)N2 (stereo not drawn),-9.81

row,SMILES,"hERG current change (%, negative = inhibition) at 10uM [%]"
1,CCN(CC(=O)NC(C)(C)C)C(=O)c1ccc(Br)cc1,2.64
2,CCOC(=O)C1CCCN(C(=O)N2CCOCC2)C1 (stereo not drawn),8.84
3,Cc1cc(C(=O)NCc2ccco2)cs1,7.33
4,Cc1cc(C)cc(NC(=S)N(Cc2ccc(Cl)cc2)Cc2ccc(C(=O)O)cc2)c1,9.95
5,CC(C)CC(=O)N1CC(C)N(C(=O)CC(C)C)CC1C (stereo not drawn),-11
6,COc1ncnc(OC)c1S(=O)(=O)NCc1ccccc1,16.8
7,CC(=O)n1cc([C@H]2C=C(C(=O)NCc3ccccc3)O[C@@H](OCCCCO)C2)c2ccccc21,-62
8,N#C/C(=C\c1ccc(-c2ccc([N+](=O)[O-])cc2Br)o1)C(=O)N1CCN(c2ccccc2)CC1,19.8
9,O=S([O-])OC1CS(=O)(=O)CC1c1ccccc1.[Na+] (stereo not drawn),17.1
10,COCCNC(=O)CSc1ccccc1C(=O)NC1CCCc2ccccc21 (stereo not drawn),5.31
11,CN(C)S(=O)(=O)c1cccc(NC(=O)c2ccc(S(=O)(=O)N3CCCC3)cc2)c1,-14
12,CCCN(/C=N/c1sc2c(c1C#N)CCCCC2)CCC,3.91
13,COC(=O)C1=C(c2cccc(C#N)c2)C[C@@H]2CC[C@H]1N2C(=O)NCCc1ccccc1,-38.7
14,COC(=O)c1ccc(Oc2nc(N3CCCCC3)nc(N3CCOCC3)n2)cc1,-17.5
15,COc1ccccc1NS(=O)(=O)c1ccc(C)c(C(N)=O)c1,-7.71
16,S=c1[nH]nc(-c2ccco2)n1/N=C/c1ccccn1,21
17,CCOC(=O)C1CCN(c2cc3c(cc2NC(=O)c2ccccc2Cl)n(C)c(=O)n3C)CC1,-48.8
18,Cc1ccc2nc(NC(=O)CCNS(=O)(=O)c3ccc(Br)s3)sc2c1,-8.41
19,N#Cc1nc(COc2ccc(F)cc2)oc1N1CCCCC1,-14.3
20,Cc1ccc(-c2nn(-c3ccc(F)cc3)cc2C(=O)N(C)CC(=O)Nc2ccc(N3CCOCC3)cc2)cc1,6.37
21,CCCCN(CC)CCCNC(=O)c1cc2c(=O)[nH]c3ccccc3c2s1,-0.682
22,C/C=C/c1ccc(OCC(=O)N(C)CC(=O)Nc2ccc(F)cc2)c(OC)c1,-36.1

row,SMILES,"hERG current change (%, negative = inhibition) at 10uM [%]"
1,CCCCCCc1c(O)nc(SCCN(C)C)[nH]c1=O,5.91
2,O=C(NCc1ccc2c(c1)OCO2)c1ccc2c(c1)C(=O)N(Cc1cccnc1)C2=O,-5.14
3,S=C(NCc1cccnc1)Nc1ccc(Oc2ccc(Cl)cc2)cc1,-0.652
4,Nc1nc(SCC(=O)Nc2ccccc2)nc2nc3c(cc12)CCCC3,-1.5
5,CCSc1nc2sc3c(c2c(=O)n1-c1ccccc1)CCN(C)C3,2.93
6,CCCNC(=O)c1ccc(SC)cc1OC,-4.76
7,Cc1ccc(OCCCCn2ccnc2)c(Cl)c1,-35.3
8,CCOCc1nnc(NC(=O)COc2ccc3c(c2)OCO3)s1,4.87
9,Cc1nnc(N)nc1C,10
10,Cc1cccc(C)c1NC(=O)CN(C)C(=O)c1ccccc1SCC(=O)N1CCCC1,15.4
11,O=C(CN1CCN(c2ccc(F)cc2)CC1)N1CCOCC1,12.9
12,CCC/C(O)=C1\C(=O)CC(c2ccccc2)CC1=NC (stereo not drawn),2.11
13,C/C(=C\C(=O)c1ccc(Br)cc1)NNC(=O)c1ccccc1,5.37
14,COC(=O)CC(c1ccc(C(C)C)cc1)n1cccc1 (stereo not drawn),18.4
15,CC(C)Oc1ccc(Br)cc1C(=O)N/N=C/c1c[nH]c2ccccc12,16.2
16,Cc1ccc(C)c(NC(=O)CSc2ccc(S(=O)(=O)N3CCCC3)cn2)c1,1.52
17,CS(=O)(=O)N1CCN(CC(=O)NC2CCCCC2)CC1,14.4
18,Cn1ccc(C(=O)N/N=C/c2c[nH]c3ccccc23)n1,26.1
19,O=C(NCCCNC(=O)c1cnccn1)c1ccc(Cl)cc1,-1.98
20,O=C(NCc1ccncc1)NC12CC3CC(CC(C3)C1)C2,-0.56
21,Cc1[nH]c(=O)[nH]c(=O)c1S(=O)(=O)N1CCCc2ccccc21,29.6
22,COC(=O)c1c(S(=O)(=O)N2CCOCC2)c(C)n(C)c1C,14.1

row,SMILES,"hERG current change (%, negative = inhibition) at 10uM [%]"
1,CC(=O)Nc1c(-c2ccccc2Cl)c(=O)c2ccccc2n1C,13
2,O=C(CN(CC1CCCO1)C(=O)CNS(=O)(=O)c1ccc(Cl)cc1)NCc1ccco1 (stereo not drawn),7.35
3,COc1ccc(C(C)=O)cc1CSCc1cc(C(C)=O)ccc1OC,18.4
4,COc1cc(NC(=O)C2CCCN(S(=O)(=O)c3ccc4c(c3)oc(=O)n4C)C2)cc(OC)c1 (stereo not drawn),-1.72
5,O=C(CN1CCCCC1)NC(=O)NC1CCCCC1,12.8
6,CCOc1ccc(OCCNC(=O)c2oc3ccccc3c2COC)cc1,-32.5
7,O=C(NC1CCCN(Cc2ccc(Cl)cc2)C1)c1cnc2ccccn2c1=O (stereo not drawn),-21.8
8,Cc1cc(C)nc(NC(=O)c2ccc(Cl)cc2)n1,3.77
9,Cc1cc(C)c(C)c(S(=O)(=O)NCc2ccc(C(=O)N3CCN(C)CC3)cc2)c1C,-4.7
10,C=CCn1c(CSc2nc3ccccc3s2)n[nH]c1=S,8.99
11,COc1ccc(/C=N/NC(=O)c2cccc(NC(=O)c3ccccc3)c2)c(C(=O)O)c1OC,6.8
12,O=C(CCC(=O)NC1CC1)Nc1nnc(C2CCCCC2)s1,3.56
13,O=C(/C=C/c1ccco1)OCC(=O)c1ccc(OC(F)F)cc1,-12.5
14,O=c1ccn(CCOc2ccc(Cl)cc2)c(=O)[nH]1,-7.96
15,COc1ccc(C(=O)NCC(=O)OCc2ccc(Br)cc2)cc1,0.553
16,O=C(N/N=C/c1ccc(-c2ccccc2C(=O)O)o1)c1cccs1,14.4
17,CCC(c1nnnn1Cc1ccc(F)cc1)N1CCN(C)CC1 (stereo not drawn),-1.38
18,Cc1ccc(-c2nc(CSCC(=O)NCCN3CCN(Cc4ccccc4)CC3)c(C)o2)cc1,-65.2
19,O=C(Nc1ccccc1C(=O)NC(Cc1ccccc1)C(=O)O)c1ccco1 (stereo not drawn),4.93
20,Cc1ccc2oc(-c3ccc(NC(=O)c4ccncc4)cc3O)nc2c1,28.4
21,O=C(c1ccco1)N1CCN(Cc2cn[nH]c2-c2cccc3ccccc23)CC1,-29.1

# Source: PMC4336329 (PLoS ONE, 2015)
